T1: porcine pancreatic elastase (porcine, UniProt P00772 27-266)
T1 construct: porcine pancreatic elastase, active enzyme as bought; also called PPE; source: bought: Merck
T1 sequence (looked up): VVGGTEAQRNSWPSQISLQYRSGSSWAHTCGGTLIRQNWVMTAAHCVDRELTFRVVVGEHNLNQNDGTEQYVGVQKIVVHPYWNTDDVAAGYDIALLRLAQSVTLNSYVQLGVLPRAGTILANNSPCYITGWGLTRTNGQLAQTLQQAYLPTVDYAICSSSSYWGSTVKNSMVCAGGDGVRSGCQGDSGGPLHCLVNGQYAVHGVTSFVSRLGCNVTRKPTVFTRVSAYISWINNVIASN

B1: human alpha 1-antitrypsin P357A (natural protein)
chain: not shown
notes: Secreted from CHO-K1 cells; source: CHO-K1, transiently transfected, secreted; purified (Q-Sepharose FF, A1AT Select)
B2: human alpha 1-antitrypsin P357K (natural protein)
chain: not shown
notes: as for B1
B3: human alpha 1-antitrypsin P357W (natural protein)
chain: not shown
notes: as for B1
B4: human alpha 1-antitrypsin P357L (natural protein)
chain: not shown
notes: as for B1
B5: human alpha 1-antitrypsin P357S (natural protein)
chain: not shown
notes: as for B1
B6: human alpha 1-antitrypsin P357N (natural protein)
chain: not shown
notes: as for B1

Each binder was assayed against T1, porcine pancreatic elastase (assay: SDS-resistant complex formation on SDS-PAGE; A1AT mixed with PPE at molar ratios 1/4, 1/2, 1/1, 2/1 and 4/1, 10 min at 25°C, 20 mM Tris·HCl, 5 mM CaCl2, 0.01% Tween 80, pH 8.0; heated in reducing SDS buffer, 10% gel, Coomassie, densitometry (percent given for the 2:1 ratio)). Conditions: both partners purified.

| percent of A1AT in complex with PPE (2:1 molar ratio) [%] | Binder |
| --- | --- |
| 54 | B1 |
| 44 | B2 |
| 17 | B3 |
| 21 | B4 |
| 35 | B5 |
| 9 | B6 |
